Laboratory results: PMC9574860, “Chemical Toolkit for PARK7: Potent, Selective, and High-Throughput” (Journal of Medicinal Chemistry, 2022)
The campaign covered roughly 7,900 compounds. About 400 (5.1%) showed an effect of 50% or more. The list shows a part of the results.

target: Parkinson's disease protein 7 (PARK7/DJ1) (human, UniProt Q99497); test: primary screen, percent inhibition; read as competition with a fluorescent probe by fluorescence polarization; higher = more effect of the substance; conditions: 100 µM
Description: The screen was conducted using the conditions as described above in 1536-well plates (Corning 3724) with a reaction volume of 8 μL per well. The compound library containing 7887 covalent fragments was purchased at Enamine Ltd. and received as 100 mM DMSO stocks in 384 well LDV Echo plates (Labcyte LP-0200). Stock solutions of 0.26 μM PARK7 and 80 nM JYQ-107 were prepared. Using a Labcyte Echo550 acoustic dispenser, 8 nL of the DMSO stock solution of the library compounds was transferred from the source plates into the empty 1536-well screening plates to obtain a 100 μM final compound concentration. Next, PARK7 (6 μL, final concentration 0.2 μM) was dispensed using a Biotek MultiflowFX liquid dispenser and incubated for 2 h, followed by dispensing the probe JYQ-107 (2 μL, final concentration 20 nM). After 2 h incubation, the FP signal was recorded on a BMG Labtech PHERAstar plate reader (λex/em 480/520 nm). The relative loss of FP signal compared with reference controls was used to calculate the remaining enzyme activity.

Parkinson's disease protein 7 (PARK7/DJ1), sequence (Q99497 whole entry, looked up, the tested form may be a part): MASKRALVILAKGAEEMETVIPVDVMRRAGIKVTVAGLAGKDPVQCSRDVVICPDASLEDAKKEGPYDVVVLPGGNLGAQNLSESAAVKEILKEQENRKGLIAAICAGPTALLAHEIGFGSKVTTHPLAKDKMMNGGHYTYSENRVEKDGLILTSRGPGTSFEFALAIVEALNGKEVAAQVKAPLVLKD

Structure (SMILES) | Inhibition % [%]
CN(Cc1nccn1CC(F)(F)F)c1ccc(C#N)nc1 | 12.1
Cc1nc(C=CC(=O)N2CCNC(C)C2)cs1.Cl.Cl (stereo not shown) | 17.5
C=CC(=O)Nc1c(C)n(C)n(-c2ccccc2)c1=O | 5.49
C=CC(=O)Nc1cnc(C(C)(C)C)nc1 | 9.19
CC(C)(C)OC(=O)N1C2CCC1CC(=CB1OC(C)(C)C(C)(C)O1)C2 | -1.71
CCOc1ccc(Cl)cc1S(=O)(=O)n1ccnc1CC | 4.44
COCCNc1oc(-c2ccccc2)nc1C#N | 3.4
C=CC(=O)N1CCN(Cc2nccn2C(F)F)CC1 | 13.9
CNCc1cccc(B2OC(C)(C)C(C)(C)O2)c1.Cl | 13.9
CCCOc1cc(C)c(C)cc1S(=O)(=O)n1cccn1 | 2.32
C=CC(=O)NCC1CC(C)(C)OC1(C)C (stereo not shown) | 4.78
CC1(C)OB(c2ccc(OC(F)(F)C(F)(F)F)cc2)OC1(C)C | 2.49
N#CC(=Cc1cccc(-c2ccncc2)c1)C(N)=O | 11.9
N#Cc1nc(-c2ccccc2)oc1N1CCOCC1 | 2.55
COc1ccc(CS(=O)(=O)F)cc1 | 88.4
CN(Cc1ccccc1Cl)C(=O)n1ccnc1 | 2.68
OB(O)c1ccc(OCc2ccc(Cl)cc2)cc1 | -0.814
C=CC(=O)NC1COc2cc(F)cc(F)c21 (stereo not shown) | 3.21
O=C1OCCC1Sc1nnc(C2CCCCC2)o1 (stereo not shown) | 66.7
CCOC(=O)c1cncc(B2OC(C)(C)C(C)(C)O2)c1 | 1.29
COc1cccc(NC(=O)CCCl)c1 | 11.2
C=CC(=O)NC[C@@H]1C=C[C@H]2C[C@@H]1CO2 (racemic) | 7.23
C=CC(=O)N1CCCN(CCOC)C(=O)C1 | 8.67
C=CC(=O)NCc1cccc(N2CCCC2=O)c1 | 0.0231
CC1(C)OC1c1ccccc1 (stereo not shown) | 13.4
CC1(C)OB(c2ccc(C(F)F)nc2)OC1(C)C | -1.1
CC1CCN(C(=O)CCl)c2ccccc2S1 (stereo not shown) | 6.09

Structure (SMILES) | Inhibition % [%]
C=CC(=O)N1CCC[C@H](CN2CCOCC2)C1 | 10.5
COCC1(C(=O)Nc2cccc(S(=O)(=O)F)c2)CCCC1 | 94.3
CC(CC(O)c1ccco1)Nc1ccc(C#N)nc1 (stereo not shown) | 9.23
Cc1cc(C=C(C#N)C(=O)O)c(C)n1CC1CCCO1 (stereo not shown) | 11.7
CCOc1cc(S(=O)(=O)n2ccnc2CC)ccc1Cl | 6.87
CC(C)Oc1cc(CNC(=O)c2cccnc2S)ccn1 | 11.9
CC1c2ccsc2CCN1C(=O)C=Cc1cnn(C)c1 (stereo not shown) | 13.8
CCc1nccn1S(=O)(=O)c1ccc(Cl)c(OC)c1 | 8.11
N#Cc1ccc(NC2CC(=O)N(C3CC3)C2)cn1 (stereo not shown) | 4.8
N#Cc1nncn1CC(=O)Nc1ccc(C(F)(F)F)cc1 | 26.2
Cc1nn(C)c(C)c1B1OC(C)(C)C(C)(C)O1 | 2.29
C=CC(=O)NCc1nnc2ccccn12 | 13
CS(=O)(=O)n1ccc(N)n1 | 7.32
Cc1ccc(F)cc1NC(=O)CCl | 12.6
C=CC(=O)N1CCCN(C(=O)c2cccc(F)c2)CC1 | 2.43
N#Cc1ccc(N2CCCC2)cn1 | 5.57
CC=C(C#N)c1ccc2c(c1)OCO2 | 12.1
N#Cc1ccccc1NC(=O)CCl | 10
c1ccc(CN2CCC3(CO3)C2)cc1 (stereo not shown) | 6.12
CC1c2cccn2CCN1C(=O)n1ccnc1 (stereo not shown) | 22
Cl.ClCCCN1CCOCC1 | 3.24
Cn1c(SC2CCOC2=O)nc2ccccc21 (stereo not shown) | 12
COC(OC)c1ccnc(SC)n1 | 10.2
C=CC(=O)Nc1c(C)nn(C)c1N1CCC1 | 87.1
N#Cc1nccn1CC=Cc1ccccc1 | 12.2
N#Cc1ncn(Cc2ccc(Cl)cc2)n1 | 7.37
O=C(CCl)NC(=O)NCc1cccs1 | 9.23

Structure (SMILES) | Inhibition % [%]
Cc1cccc(NC2CCN(C3CC(C)OC3=O)CC2)c1 (stereo not shown) | 4.3
C=CC(=O)N1C2CCC1CC(CCF)C2 (stereo not shown) | 5.32
COC(=O)c1cc(O)cc(B2OC(C)(C)C(C)(C)O2)c1 | 13.2
C=CC(=O)Nc1cnn(CC2CC2)c1 | 7.8
O=C(O)c1csc(NS(=O)(=O)C=Cc2ccccc2)c1 | 62.5
CCOc1cc(C)c(Cl)cc1S(=O)(=O)n1ccnc1C | 5.5
CC1(C)CCCCN(c2cnc(C#N)cn2)C1 | 7.16
O=C1SCCN1CN1CCC(c2ccccc2)CC1 | 11.7
CN1CCC(CCl)CC1.Cl | 7.56
Cc1ncc(C=CC(=O)N2CCNCC2C)s1.Cl.Cl (stereo not shown) | 13.7
C=CC(=O)N1CCN(C(=O)C=C)CC1 | 4.56
C=CC(=O)N1CCCCC1c1nccs1 (stereo not shown) | 13.3
O=c1ccn(C2CC2)c(S)n1 | 1.51
C=CC(=O)N1CCN(C)C(=O)C1CC (stereo not shown) | 1.56
C=CC(=O)NC1CC2C=CC1CC2 (stereo not shown) | 3.57
N#Cc1ccc(Cl)nn1 | 8.15
Cc1ccc(OCCn2cnc(C#N)n2)cc1 | 2.66
CCOc1cc(C)c(C)cc1S(=O)(=O)n1nc(C)cc1C | 3.57
Cc1nccn1CC1CCCN1c1ccc(C#N)nc1 (stereo not shown) | 0.293
C=CC(=O)N(Cc1nc(-c2cccnc2)no1)C(C)C | 22.6
N#Cc1ncn(CC(=O)N2CCCC2c2cccs2)n1 (stereo not shown) | 5.17
CC(C)(C)Sc1ccc(C#N)nc1 | 2.96
Cc1ccc(C=C(C#N)C(=O)NCc2ccco2)o1 | 2.77
Cc1ccccc1CCNC(=O)n1ccnc1 | 101
O=C(CCl)Nc1ccc2c(c1)C(=O)c1ccccc1C2=O | 2.08
